Where “and” joins values, the source holds several entries; their conditions need not be identical. Equal values may be shown once. The whole screen tested about 16,000 compounds, of which about 40 (0.2%) were called active. Inconclusive results (about 1%) are left out. Calls come from the whole dose curve; as a rule, active = well fitted activation curve with a large enough effect; inconclusive = small, poorly fitted or top-dose-only effect, or another doubt; inactive = no such curve, though single readings can be large or run the other way. The list shows a part of the results.
Target: Rap guanine nucleotide exchange factor 4 (Homo sapiens) (UniProt Q8WZA2)
UniProt Q8WZA2, sequence (Q8WZA2 whole entry, looked up): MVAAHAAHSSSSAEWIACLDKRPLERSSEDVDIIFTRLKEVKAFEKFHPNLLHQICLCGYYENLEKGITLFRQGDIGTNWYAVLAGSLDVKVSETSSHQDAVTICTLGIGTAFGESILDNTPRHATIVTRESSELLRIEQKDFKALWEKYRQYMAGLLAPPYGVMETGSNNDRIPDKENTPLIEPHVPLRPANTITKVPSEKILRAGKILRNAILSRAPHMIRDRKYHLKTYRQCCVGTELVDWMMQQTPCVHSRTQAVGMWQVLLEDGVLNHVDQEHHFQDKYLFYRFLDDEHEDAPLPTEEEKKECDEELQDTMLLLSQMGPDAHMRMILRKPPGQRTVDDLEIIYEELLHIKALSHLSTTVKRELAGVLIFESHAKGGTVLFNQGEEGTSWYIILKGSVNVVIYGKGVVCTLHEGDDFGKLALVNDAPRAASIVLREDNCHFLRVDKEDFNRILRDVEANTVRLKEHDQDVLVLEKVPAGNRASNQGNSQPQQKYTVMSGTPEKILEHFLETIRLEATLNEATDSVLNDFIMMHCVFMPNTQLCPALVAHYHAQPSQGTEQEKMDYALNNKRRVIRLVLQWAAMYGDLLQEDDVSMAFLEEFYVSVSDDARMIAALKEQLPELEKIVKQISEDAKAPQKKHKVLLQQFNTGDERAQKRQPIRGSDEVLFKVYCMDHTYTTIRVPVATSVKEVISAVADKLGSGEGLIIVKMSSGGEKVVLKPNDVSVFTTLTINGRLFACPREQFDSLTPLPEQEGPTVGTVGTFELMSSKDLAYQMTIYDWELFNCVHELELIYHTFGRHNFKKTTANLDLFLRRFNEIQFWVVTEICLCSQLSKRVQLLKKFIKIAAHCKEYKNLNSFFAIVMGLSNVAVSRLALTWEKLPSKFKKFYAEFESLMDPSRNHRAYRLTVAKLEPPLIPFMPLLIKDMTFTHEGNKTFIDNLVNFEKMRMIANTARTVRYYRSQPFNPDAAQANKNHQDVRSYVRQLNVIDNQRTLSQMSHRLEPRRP
Assay: Validation qHTS for agonist of cAMP-regulated guanine nucleotide exchange factor 4 (EPAC2);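 note: exchange makes BODIPY-GDP fluorescence drop when released from Rap1B; series mostly up to about 150 µM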
Conditions: EPAC2 Rap1B BODIPY-GDP exchange, fluorescence; activation: active compounds read high
How it was run: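 Fluorescent exchange assay: 100 nM EPAC2 with 250 nM RAP1B-BODIPY-GDP and 50 uM GDP; compound added, 5 min at room temperature, then read (ex 480/em 540 nm) every 5 min for 30 min. Normalized to 6.5 mM cAMP agonist control.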
% is set by controls: 0 for no effect and ±100 for the full control effect.

activation, inactive:
COc1cc(/C(=C/c2ccccc2)c2ccccc2)c2c(c1)oc1ccccc12 -7.45%, COc1ccc(N2C(=O)[C@@H]3C[C@H]2CN3Cc2cccn2-c2ccc(Cl)cn2)c(C)c1 -26.1%, CCCCCCCC/C=C\CCCCCCCC(=O)O -11.3%, N#Cc1cccc(-c2ccc3ncnc(NC4CCNCC4)c3c2)c1 -5.27%, CCC(=O)N[C@@H]1c2ccccc2C2(CCN(Cc3[nH]c4c(Cl)cccc4c3C)CC2)[C@H]1OC -12.4%, CN1CCCC(CNC(=O)c2cnn(-c3ncc4c(n3)-c3ccccc3CC4)c2C2CC2)C1 (configuration not stated) -10.8%, CNC1C(O)C(O[C@H]2C(O)[C@@H](OC3OC(CN)=CCC3N)[C@H](N)C[C@@H]2N)OC[C@]1(C)O (some centres not stated) -17.3%, Cc1nc2cnc(Oc3ccccc3)nc2n(-c2ccccc2)c1=O -7.99%, O=C(C[n+]1ccccc1Br)c1ccc(-c2ccccc2)cc1 -21.3%, COc1cc2c(cc1OC)C(c1c[nH]c3ccccc13)NCC2 (configuration not stated) 18.4%, CCCCC[C@H](O)CC(=O)CCc1ccc(O)c(OC)c1 -10.3% and -20.9%, CCOC(=O)C[C@H]1c2ccccc2S(=O)(=O)N1Cc1cc(OC)c(OC)c(OC)c1 -3.72%, CC(=O)OC[C@H]1O[C@@H](O[C@H]2[C@H](O)[C@@H](OC(=O)c3ccccc3C(=O)O)[C@H](O)O[C@@H]2COC(C)=O)[C@H](O)[C@@H](OC(=O)c2ccccc2C(=O)O)[C@@H]1O -9.7%, Cc1cc(O)cc(=O)o1 -4.17%, Cn1c(=O)c(CCc2ccccc2)nc2cnc(Oc3ccccc3)nc21 11%, Cc1cccc(CNC(=O)c2cnn(-c3nccc(-c4cccs4)n3)c2C(C)C)n1 -64.3%, C#CCOc1ccc2c(C)cc(=O)oc2c1 -10.7%, COc1ccc2[nH]c(S(=O)Cc3ncc(C)c(OC)c3C)nc2n1 (configuration not stated) -19.9%, CS(=O)(=O)Nc1cccc(-c2cncnc2NCc2ccccc2)c1 -11.8%, CCC1=C[C@@H]2CN(C1)Cc1c([nH]c3ccccc13)[C@@](C(=O)OC)(c1cc3c(cc1OC)N(C)[C@@H]1[C@@](O)(C(=O)OC)[C@H](OC(C)=O)[C@]4(CC)C=CCN5CC[C@]31[C@@H]54)C2 -3.74%, CCc1c(C(=O)NCCc2ccc(N3CCCCC3)cc2)[nH]c2ccc(Cl)cc12 3.38%, Oc1ccc(C(O)CNCCCCCCNCC(O)c2ccc(O)c(O)c2)cc1O (configuration not stated) -15.6%, Cc1cc(C(=O)Nc2ccccc2-c2nc(CNC(=O)c3ccccc3Cl)c(C)o2)c(C)o1 -6.95%, CCCCN(CCCC)C(=S)[S-].CCCCN(CCCC)C(=S)[S-].[Zn+2] -1.83%, CCN(Cc1ccncc1)Cc1ccc2c(c1)CN(C(=O)c1ccccc1)CCO2 0.0322%, Cc1cccc(Nc2ncccc2C(=O)O)c1C -1.47%, O=C1CCN(CCc2ccccc2)CCN1[C@H](CO)c1ccccc1 -15.2%, Cc1ccc(F)cc1CNC(=O)c1sc2ncnc(NCC3CCCO3)c2c1C (configuration not stated) 0.647%, COc1ccc(Oc2ncc3nc(-c4ccc(F)cc4)c(=O)n(CCC#N)c3n2)cc1 6.35%, S=P(N1CC1)(N1CC1)N1CC1 -1.27% and 13.2% and -6.56%, COC(=O)C1CCN(Cc2ccc3c(c2)CN(C(=O)c2ccc4nc(C)c(C)nc4c2)CCO3)CC1 -10.6%, COCCN(C)C(=O)c1cnn(-c2nccc(-c3cc(C)sc3C)n2)c1C -2.24%, COc1cc(N)c(Cl)cc1C(=O)NC1CCN(Cc2ccccc2)CC1 -11.9% and -12.4%, O=c1c(-c2cccc(F)c2)nc2cncnc2n1Cc1ccccc1 5.38%, COc1ccc(SC[C@H](Cc2ccccc2)N2CC[C@@H](O)CCC2=O)cc1 -21.1%, COC(=O)N1CCC2(CCCN(C(=O)Nc3ccc(OC)cc3)C2)CC1 -15.1%, COc1cccc(CNC(=O)c2c(OC)cc(=O)n3c2CCN(C(=O)C2=C(C)OCCO2)CC3)c1 -9.38%, CCN1CCCC1CNC(=O)c1cc(S(=O)(=O)CC)c(N)cc1OC (configuration not stated) -15.3% and -10.4%, Nc1nc(N)nc(-c2cc(Cl)ccc2Cl)n1 -5.11%, CCOC(=O)[C@H](CCc1ccccc1)N[C@@H](C)C(=O)N1CC2(C[C@H]1C(=O)O)SCCS2 -2.62%, NC(N)=NCCN1CCCCCCC1 -2.87% and 12.9%, COCC(=O)N1CCC[C@@]2(CCN(Cc3nccs3)C2)C1 1.3%, Cc1cnc(-n2ncc(C(=O)N(C)C3CCOC3)c2-c2cccs2)nc1-c1ccc(F)cc1 (configuration not stated) -13.7%, Cc1nnsc1C(=O)NCC1Cc2cccc(-c3ncccn3)c2O1 (configuration not stated) -8.82%, C[N+](C)(C)CCOP(=O)([O-])OP(=O)(O)OCC1OC(n2ccc(N)nc2=O)C(O)C1O (configuration not stated) 4.48%, COCCn1c(=O)c(CCc2ccccc2)nc2cnc(Nc3ccccc3)nc21 -13.8%, CC1CCc2cc(F)cc3c(=O)c(C(=O)O)cn1c23 (configuration not stated) -4.41%, O=C(NCC1CCCCN1)c1cc(OCC(F)(F)F)ccc1OCC(F)(F)F (configuration not stated) -1.72% and -0.804%, OC[C@@H](O)[C@H](O)[C@H](O)[C@@H](O)CO -5.64% and -17%, COc1cc2c(cc1OC)-c1c(oc3cc(O)cc(O)c3c1=O)CO2 -10.8%, Cc1ccc(SC[C@H](C)CN2CC[C@H](O)CCC2=O)cc1 -4.87%, CN[C@@H]1[C@@H](O)[C@@H](O[C@@H]2[C@H](O)[C@H](O[C@H]3OC(CN)=CC[C@H]3N)[C@@H](N)C[C@H]2N)OCC1(C)O (some centres not stated) -20.8%, COC(=O)/C(=C1\OC(=O)C(c2ccccc2)C1=O)c1ccccc1 (configuration not stated) -7.48%, COc1cc2ccc(=O)oc2c(O)c1OCC=C(C)C 2.65%, COC(=O)[C@@H]1CCCN1Cc1ccc2c(c1)CN(Cc1ccc3c(c1)OCCO3)CCO2 -9.33%, CCCCOc1ccc(OCCCN2CCOCC2)cc1 -3.48% and -18.1%, CCCOc1ccc2nc(NC(=O)OC)[nH]c2c1 5.46%, FC(F)(F)c1cnc(-c2cc3c(c(OCC4CCCO4)c2)OCCN(Cc2cccn2-c2nccs2)C3)c(Cl)c1 (configuration not stated) -8%, Cc1cccc(CNc2cc(-c3ccoc3)ncn2)c1 -12.4%, CC1CCC2C(C)(C)C3CC12CC[C@]3(C)O (some centres not stated) -7.82%, Cc1ccc(SC[C@H](C)CN2CC[C@H](C(C)(C)C)CCC2=O)cc1 -16.4%, CN1CCN(c2ncc3nc(-c4ccc(F)cc4)c(=O)n(Cc4cccs4)c3n2)CC1 4.62%, CCCCNC(=O)[C@@H]1CC=C[C@@H]2CCN(Cc3ccccc3)C(=O)[C@@H]21 -2.34%, COc1ccc(CCCOC(Cn2ccnc2)c2ccc(OC)cc2)cc1 (configuration not stated) 0.536% and -3.02%, C=CCN(C(=O)OC(C)(C)C)S(=O)(=O)NCc1ccccc1 -2.17%, C[N+]1(CC(=O)c2ccc(-c3ccccc3)cc2)CCOCC1 -9.04%, COc1ccc(C(C)=O)c(O)c1 -21.4%, Cc1cccc(CNCCn2cc(C(=O)Nc3ccccc3)nn2)c1 -7.41%, COC(=O)N1CCC2(CCCN(c3ccccn3)C2)CC1 -20.6%, CC1OC1P(=O)(O)O (configuration not stated) -58.6%, COC(=O)/C(=C1/OC(=O)C(c2ccccc2)=C1O)c1ccccc1 -15.8%, Cc1cnc(-n2ncc(C(=O)NCCN3CCOCC3)c2C(C)C)nc1-c1ccc(F)cc1 5.31%, CC(=O)Oc1cccc(C(=O)O)c1OC(C)=O -11.9%, CCN(CC)C(=O)c1cc(S(=O)(=O)Cc2ccccc2)c(N2CCC(c3ccccc3)CC2)cc1N(CC)CCN(C)C -7.96%, COc1c(O)cc2c(c1O)[C@@H]1O[C@H](CO)[C@@H](O)[C@H](O)[C@H]1OC2=O -12.1%, CCC1OC(=O)C(C)[C@@H](O[C@H]2C[C@@](C)(OC)C(O)C(C)O2)C(C)[C@@H](O[C@@H]2OC(C)CC(N(C)C)C2O)[C@@](C)(O)CC(C)CN(C)C(C)C(O)[C@]1(C)O (some centres not stated) 2.01%, CCCCC(F)(F)[C@@]1(O)CC[C@H]2[C@H](CC(=O)[C@@H]2CCCCCCC(=O)O)O1 -0.512%, Cc1cnc(SCc2ccccn2)nc1C1CCCN(C(=O)c2ccc(-c3ccccc3F)cc2)C1 (configuration not stated) -5.97%, COc1ccccc1CNc1ncnc2ccc(-c3ccc4c(c3)OCO4)cc12 4.91%, COc1cc(-c2coc3cc(OCc4ccccc4)c(OC)c(O)c3c2=O)cc(O)c1OC 5.27%, CCn1c(-c2ccccc2F)nc2cc(NC(C)=O)cc(C(=O)NCC3CCOCC3)c21 -11.3%, Cc1cnc(-n2ncc(C(=O)NCCc3ccccn3)c2C)nc1-c1ccc(F)cc1 -7.45%

Reference: PubChem BioAssay AID1645887 (National Center for Advancing Translational Sciences (NCATS), 2021)
